For 61 compounds, relative growth results are on record in the supplement of paper PMC9446081.

The structures appear in SMILES notation. Screen size: about 39,000 compounds; about 220 (0.56%) showed activity. This is one part of the list.
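Also: static incubation at 37 °C against the wild-type strain, values averaged over two biological replicates.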

The test system of the test is Escherichia coli K-12 BW25113. Briefly: relative growth (OD600 normalised to plate interquartile mean) (fraction); higher = less growth inhibition, active = 0.2 or less. The note with it: 50 µM; LB; incubation time: overnight (16-24 h).
With `Cc1noc(C)c1NC(=O)Nc1ccc2c(c1)C(=O)N([C@H](C)CO)C[C@H](C)[C@@H](CN(C)C(=O)Nc1c(C)noc1C)OCCCC[C@H](C)O2`, the relative growth is inactive: 1.
Next, `C[C@@H]1CN([C@@H](C)CO)C(=O)c2cccc(NS(C)(=O)=O)c2O[C@@H]1CN(C)S(C)(=O)=O`: inactive: 0.996; `c1cn(-c2ccc(-n3ccnc3)nn2)cn1`: inactive: 0.951; `C[C@H](CO)N1C[C@H](C)[C@@H](CN(C)C(=O)Nc2ccc(F)cc2)Oc2ncc(Br)cc2C1=O`: inactive: 0.981.
With `Cc1[nH]c(=O)[nH]c(=O)c1S(=O)(=O)N1CCC(C(=O)N[C@H](C)c2ccccc2)CC1`, the relative growth is inactive: 0.991.
Next, `C[C@H](CO)N1C[C@H](C)[C@H](CN(C)C(=O)Nc2ccc3c(c2)OCO3)Oc2cc(C#Cc3cccnc3)ccc2S1(=O)=O`: inactive: 0.991; `Cc1noc(C)c1NC(=O)Nc1cccc2c1O[C@@H](CN(C)Cc1ccc(C(F)(F)F)cc1)[C@@H](C)CN([C@H](C)CO)C2=O`: inactive: 0.984.
Next, `C[C@@H]1CN([C@H](C)CO)S(=O)(=O)c2ccc(Br)cc2O[C@@H]1CN(C)Cc1ccc(C(=O)O)cc1`: inactive: 0.979; `COc1ccc(S(=O)(=O)N(C)C[C@@H]2OCCCC[C@@H](C)Oc3ccc(NS(=O)(=O)c4cn(C)cn4)cc3C(=O)N([C@H](C)CO)C[C@@H]2C)cc1`: inactive: 1.01; `C=C(CC)ON=c1[nH]c(=O)c2ncn([C@@H]3O[C@H]4CO[PH](O)(O)O[C@H]4[C@H]3OC(=O)CCC)c2[nH]1`: inactive: 0.99.
Regarding `CC(C)N1C[C@H](C)[C@@H](CN(C)Cc2ccccc2Cl)Oc2c(NC(=O)c3ccncc3)cccc2C1=O`, the relative growth is inactive: 1.04.
Then `COCC#Cc1cnc2c(c1)C(=O)N([C@@H](C)CO)C[C@H](C)[C@@H](CN(C)S(=O)(=O)c1cccc(OC)c1)O2`, with inactive: 1.
Then `C[C@@H]1CCCCO[C@@H](CN(C)S(=O)(=O)c2ccc(F)cc2)[C@H](C)CN([C@H](C)CO)C(=O)c2cc(NC(=O)Nc3ccc(C(F)(F)F)cc3)ccc2O1`, with inactive: 1.02.
Then `C[C@@H]1CN([C@H](C)CO)C(=O)c2cc(NC(=O)c3ccncc3)ccc2O[C@@H]1CN(C)Cc1ccc(Oc2ccccc2)cc1`, with inactive: 0.993.
`C[C@H]1CN([C@@H](C)CO)C(=O)c2cc(NS(C)(=O)=O)ccc2O[C@@H]1CN(C)C(=O)Nc1ccc2c(c1)OCO2`: the relative growth was inactive: 0.982.
Next, `CCOC(=O)Cc1c(C)[nH]c(SC)nc1=O`: inactive: 0.99; `COCCOC(=O)N1C(=O)[C@@]2(c3cc(C#CC4=CCCCC4)ccc31)[C@H](C(=O)N1CCc3cc(OC)c(OC)cc3C1)[C@H]1C(=O)O[C@H](c3ccccc3)[C@H](c3ccccc3)N1[C@@H]2c1ccccc1OCCO`: inactive: 1.08; `C[C@H](O)c1nc(=O)c2ccccc2[nH]1`: inactive: 0.997.
On to `C[C@@H]1CN([C@@H](C)CO)C(=O)c2cc(NS(=O)(=O)c3cn(C)cn3)ccc2O[C@H]1CN(C)CC1CCCCC1`, for which the relative growth is inactive: 1.02.
Then `COCC#Cc1cnc2c(c1)C(=O)N([C@H](C)CO)C[C@H](C)[C@@H](CN(C)C(=O)c1ccc3c(c1)OCO3)O2`, with inactive: 0.993; and `CC(C)[C@@H](N)C(=O)O`, with inactive: 0.997.
Next, `C[C@H](CO)N1C[C@H](C)[C@@H](CN(C)C(=O)CCCN(C)C)OCCCC[C@H](C)Oc2ccc(N(C)C)cc2C1=O`: inactive: 1.01; `C[C@H](CO)N1C[C@H](C)[C@@H](CN(C)C(=O)c2ccncc2)Oc2cc(-c3cccc(C#N)c3)ccc2S1(=O)=O`: inactive: 1.01; `C[C@H]1CCCCO[C@@H](CN(C)C(=O)c2ccccc2)[C@@H](C)CN([C@@H](C)CO)C(=O)c2cc(NC(=O)NC3CCCCC3)ccc2O1`: inactive: 0.951.
Then `C[C@H](CO)N1C[C@H](C)[C@H](CN(C)C(=O)Nc2cccc3ccccc23)Oc2c(NC(=O)Nc3ccc(F)cc3)cccc2C1=O`, with inactive: 0.968; and `C[C@@H]1CCCCO[C@H](CN(C)C(=O)Nc2ccc(F)cc2)[C@H](C)CN([C@@H](C)CO)C(=O)c2cc(NC(=O)Cc3ccccc3)ccc2O1`, with inactive: 0.99; and `C[C@@H]1CN([C@H](C)CO)C(=O)Cc2cc(NC(=O)Nc3ccc(F)cc3)ccc2O[C@@H]1CN(C)CC1CCCCC1`, with inactive: 0.997.
As to `C[C@H]1CN([C@@H](C)CO)C(=O)c2cccc(NS(=O)(=O)c3cccs3)c2O[C@@H]1CN(C)S(=O)(=O)c1ccc(F)cc1`, the relative growth is inactive: 1.02.
Next, `COc1ccc(NC(=O)N(C)C[C@@H]2Oc3ncc(C#CCN(C)C)cc3C(=O)N([C@H](C)CO)C[C@@H]2C)cc1`: inactive: 1.01; `Cc1ccc(S(=O)(=O)N(C)C[C@@H]2OCCCC[C@@H](C)Oc3ccc(NC(=O)Nc4cccc5ccccc45)cc3C(=O)N([C@@H](C)CO)C[C@H]2C)cc1`: inactive: 1.03; `COc1ccc(S(=O)(=O)N(C)C[C@H]2OCCCC[C@H](C)Oc3ccc(NC(=O)NC4CCCCC4)cc3C(=O)N([C@H](C)CO)C[C@@H]2C)cc1`: inactive: 1.03.
For `COc1ccc(NC(=O)Nc2cccc3c2O[C@@H](CN(C)S(=O)(=O)c2cn(C)cn2)[C@H](C)CN([C@@H](C)CO)C3=O)cc1`, the relative growth was inactive: 0.987.
Then `COc1ccc(C[C@@H]2c3cc(OC)c(OC)cc3CC[N@+]2(C)CCC(=O)OCCCCCOC(=O)CC[N@@+]2(C)CCc3cc(OC)c(OC)cc3[C@H]2Cc2ccc(OC)c(OC)c2)cc1OC`, with inactive: 0.908.
In the case of `c1ccc(-c2cccs2)nc1`, the relative growth is inactive: 1.01.
Then `N#CCC(=O)N1CCSCC1`, with inactive: 1.02; and `C[C@@H]1CN([C@@H](C)CO)C(=O)c2cccc(NC(=O)Nc3ccc4c(c3)OCO4)c2O[C@H]1CN(C)S(C)(=O)=O`, with inactive: 1.01.
As for `C[C@@H]1CN([C@@H](C)CO)C(=O)c2cccc(NC(=O)c3cnccn3)c2O[C@@H]1CN(C)C(=O)Nc1ccc(F)cc1`, the relative growth is inactive: 0.954.
In the case of `Cc1cc(-c2ccc3ccccc3n2)nc2ccc3ccccc3c12`, the relative growth was inactive: 1.02.
Next, `C[C@H](CO)N1C[C@H](C)[C@@H](CN(C)C(=O)Nc2ccccc2)Oc2c(NC(=O)Nc3cccc4ccccc34)cccc2C1=O`: inactive: 1.07; `NCc1cccc(-c2ccccc2)c1`: inactive: 0.973; `C[C@H]1CN([C@@H](C)CO)C(=O)c2cccc(NC(=O)c3cnccn3)c2O[C@H]1CN(C)CC1CCCCC1`: inactive: 0.995.
Next, `C[C@H](CO)N1C[C@H](C)[C@H](CN(C)S(=O)(=O)c2ccc3c(c2)OCCCO3)OCc2cn(nn2)CCCC1=O`: inactive: 1.03.
Next, `CS(=O)(=O)N(CCC#N)Cc1ccco1`: inactive: 1; `C[C@@H]1CCCCO[C@@H](CN(C)CC2CCCCC2)[C@@H](C)CN([C@@H](C)CO)C(=O)c2cc(N(C)C)ccc2O1`: inactive: 1; `CO[C@@H]1CN(C)C(=O)c2ccc(NC(=O)Nc3ccccc3F)cc2OC[C@@H](C)N(CCC(F)(F)F)C[C@H]1C`: inactive: 1.02.
Consider `C[C@@H]1CN([C@H](C)CO)C(=O)c2cc(NS(=O)(=O)c3ccccc3)ccc2O[C@@H](C)CCCCO[C@@H]1CN(C)C(=O)c1ccccc1`, for which the relative growth is inactive: 1.
Next, `C[C@H]1CN([C@@H](C)CO)S(=O)(=O)c2ccc(/C=C/c3ccccc3)cc2O[C@H]1CN(C)C(=O)CN1CCOCC1`: inactive: 1.04.
Then `Cc1noc(C)c1NC(=O)Nc1ccc2c(c1)C(=O)N([C@@H](C)CO)C[C@H](C)[C@H](CN(C)CC1CCCCC1)OCCCC[C@H](C)O2`, with inactive: 0.983; and `C[C@@H]1CN([C@@H](C)CO)C(=O)Cc2cc(NS(=O)(=O)c3cccs3)ccc2O[C@H]1CN(C)S(=O)(=O)c1cn(C)cn1`, with inactive: 1.02.
Then `CCOc1cc2ncc(C#N)c(Nc3ccc(OCc4ccccn4)c(Cl)c3)c2cc1NC(=O)/C=C/CN(C)C`, with inactive: 1.01; and `CC(C)NC(=O)Nc1ccc2c(c1)C(=O)N([C@H](C)CO)C[C@H](C)[C@@H](CN(C)C(=O)C1CCCCC1)OCCCC[C@H](C)O2`, with inactive: 0.999.
With `Cc1noc(C)c1S(=O)(=O)Nc1ccc2c(c1)CC(=O)N([C@H](C)CO)C[C@@H](C)[C@H](CN(C)S(=O)(=O)c1ccc(Cl)cc1)O2`, the relative growth is inactive: 1.
Next, `COc1ccc(S(=O)(=O)Nc2ccc3c(c2)CC(=O)N([C@@H](C)CO)C[C@H](C)[C@H](CN(C)S(=O)(=O)c2ccc(F)cc2)O3)cc1`: inactive: 0.998; `NCc1ccnc(N2CCCC2)c1`: inactive: 1.01; `C[C@H]1CN([C@@H](C)CO)C(=O)c2cc(NC(=O)Nc3ccc(C(F)(F)F)cc3)ccc2O[C@@H]1CN(C)Cc1ccc(Oc2ccccc2)cc1`: inactive: 0.987.
Then `COCCOC(=O)N1C(=O)[C@@]2(c3cc(C#Cc4ccc(OC)cc4)ccc31)[C@H](C(=O)N1CCCCCCC1)[C@H]1C(=O)O[C@H](c3ccccc3)[C@H](c3ccccc3)N1[C@@H]2c1ccc(OCCO)cc1`, with inactive: 1.07.
Then `O=C(O)CC[C@H]1CCC(=O)N1`, with inactive: 0.924; and `CN1CCN(C(=O)C[C@H]2C=C[C@@H](NC(=O)c3ccc4c(c3)OCO4)[C@@H](CO)O2)CC1`, with inactive: 0.955; and `CNC(=O)C[C@H]1CC[C@@H]2[C@H](COC[C@H](O)CN2C(=O)Nc2ccc3c(c2)OCO3)O1`, with inactive: 0.994.
With `C[C@H](CO)N1C[C@H](C)[C@@H](CN(C)CC2CC2)OCCCC[C@H](C)Oc2ccc(NS(=O)(=O)c3ccc(Cl)cc3)cc2C1=O`, the relative growth is inactive: 0.988.
In the case of `C[C@H](CO)N1C[C@H](C)[C@H](CN(C)Cc2ccc3c(c2)OCO3)Oc2ccc(NC(=O)C3CC3)cc2C1=O`, the relative growth is inactive: 0.959.
